{"source": "PubChem BioAssay AID1671193", "about": "(National Center for Advancing Translational Sciences (NCATS), 2021)", "note": "The campaign covered roughly 150,000 compounds. About 180 (0.12%) were called active. The shares of active, inactive and inconclusive entries below differ from those in the screen. Calls come from the whole dose curve; as a rule, active = well fitted cell-killing curve with a large enough effect; inconclusive = small, poorly fitted or top-dose-only effect, or effect the other way; inactive = flat fitted curve, though single readings scatter. A potency beside an inconclusive call is a rough fit, not a confirmed value. Potency is the fitted concentration of half-maximal effect; tags give direction and shape of the fitted curve.", "data": [{"assay": "GF-AFC viability counterscreen for inhibitors of alpha-synuclein gene (SNCA) expression; note: nearly all actives have a fitted effect of over 30% in size;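 for activity change, negative = cytotoxicity: 0% = DMSO-treated cells and -100% = medium-only wells without cells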", "details": "HEK-293-SNCA-luc viability, GF-AFC fluorescence, 24 h; activity change, negative = cytotoxicity: at 57.1 µM (top of the series) unless noted", "summary_of_the_method": "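HEK-293-SNCA-luc cells (1500/well) plated 24 h, then exposed 24 h to a dilution series; GF-AFC added 30 min at 37C, fluorescence 405/540 nm; normalised to medium-only and DMSO wells, Hill fit.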", "values": [{"molecule": "CCOc1cc(CNCCSc2nnnn2-c2ccccc2)cc(Cl)c1OC", "activity change, negative = cytotoxicity": "inconclusive: 29.7%"}, {"molecule": "O=C(Cn1nc2c(cc1=O)CCCCC2)NC1CCCc2c1[nH]c1ccccc21", "note": "(stereo not given)", "Potency": "inactive"}, {"molecule": "O=C(c1ccc(F)cc1)N1CCCC(n2cc(-c3nc(-c4ccccc4)no3)nn2)C1", "note": "(stereo not given)", "Potency": "inconclusive: 39.8 µM [cytotoxic, single point]"}, {"molecule": "COc1ccc(NC(=O)c2cc3n(n2)CC(c2ccc(Cl)cc2)OC3)cc1", "note": "(stereo not given)", "Potency": "inactive"}, {"molecule": "CN1CC(=O)N(C2CCNC2)Cc2c1ncnc2N1CCC(N2CCOCC2)CC1", "note": "(stereo not given)", "Potency": "inactive"}, {"molecule": "O=C(CSc1cn(CC(=O)N2CCCCCC2)c2ccccc12)Nc1ccccc1F", "Potency": "inconclusive: 12.6 µM [cytotoxic, partial curve, poor fit]"}, {"molecule": "Cc1cc2c(c(=O)n(-c3ccccc3)c(=O)n2CC(=O)Nc2ccccc2C(F)(F)F)n1C", "Potency": "inconclusive: 2 µM [cytotoxic, full curve, poor fit]"}, {"molecule": "O=C(Nc1ccc(Cl)cc1)NC1CCN(Cc2cccc(-c3cccs3)c2)CC1", "activity change, negative = cytotoxicity": "inactive: -4.41% [at 12.5 µM]"}, {"molecule": "COc1ccc(OCC(=O)N2CCC(Cc3nc(-c4ccc(OC)cc4)no3)CC2)cc1", "Potency": "inconclusive: 28.2 µM [cytotoxic, partial curve, poor fit]"}, {"molecule": "O=C(Nc1ccccc1C(=O)NC1CCCCNC1=O)c1cc2ccccc2s1", "note": "(stereo not given)", "Potency": "inconclusive: 37.7 µM [cytotoxic, partial curve, poor fit]"}, {"molecule": "CC(C)NC(=O)N(C)CC1CCOCC1", "Potency": "inconclusive: 1.58 µM [cytotoxic, full curve, poor fit]"}, {"molecule": "COc1ccc(OC)c(NC(=O)CSc2c3c(nc4ccccc24)CCCC3)c1", "Potency": "inconclusive: 28.2 µM [cytotoxic, partial curve, poor fit]"}, {"molecule": "O=C(Cc1cccc(Cl)c1)N1CCCC(C(=O)N2CCCC(c3nc4ccncc4[nH]3)C2)C1", "note": "(stereo not given)", "Potency": "inactive"}, {"molecule": "COc1ccc(-c2nc3c(c(-c4ccccc4)n2)CN(C(=O)c2ccccc2Cl)CC3)cc1", "Potency": "inconclusive: 28.2 µM [cytotoxic, partial curve, poor fit]"}, {"molecule": "COc1cccc(-c2ccc(CN3CCCC(NC(=O)Nc4ccc(Cl)cc4)C3)cc2)c1", "note": "(stereo not given)", "Potency": "inconclusive: 39.8 µM [cytotoxic, single point]"}, {"molecule": "CC(=O)O[C@@]12CO[C@H]1C[C@H](O)[C@@]1(C)C(=O)[C@H](O)C3=C(C)[C@@H](OC(=O)C(O)[C@@H](NC(=O)OC(C)(C)C)c4ccccc4)C[C@@](O)([C@@H](OC(=O)c4ccccc4)[C@@H]21)C3(C)C", "note": "(stereo not given in full)", "Potency": "inconclusive: 24.1 µM [cytotoxic, partial curve, poor fit]"}, {"molecule": "COc1ccc(-c2nc3scc(CCNS(=O)(=O)c4c(C)noc4C)n3n2)cc1", "Potency": "inconclusive: 1.78 µM [cytotoxic, full curve, poor fit]"}, {"molecule": "O=C(NC1CCN(c2cc(-c3cccs3)[nH]n2)C1)c1ccc(F)cc1Cl", "note": "(stereo not given)", "Potency": "inactive"}, {"molecule": "COc1ccc(-c2cc(N3CCCC(NC(=O)c4ccc(C)c(F)c4)C3)n[nH]2)cc1", "note": "(stereo not given)", "Potency": "inactive"}, {"molecule": "CC(=O)NCC1CCCN(Cc2ccc(-c3ccccc3C#N)o2)C1", "note": "(stereo not given)", "Potency": "inactive"}, {"molecule": "CC(C)NC(=O)C1CCN(Cc2ccccc2-c2ccccc2F)CC1", "Potency": "inactive"}, {"molecule": "Cn1nccc1-c1cnc2n[nH]c(-c3ccc4c(c3)OCO4)c2n1", "Potency": "inconclusive: 56.2 µM [rising, single point]"}, {"molecule": "O=C(CCc1ccnc(N2CCOCC2)c1)N1CCCN(c2ncccn2)CC1", "Potency": "inactive"}, {"molecule": "COc1cc(Cl)ccc1OCc1nnc(C(=O)N2CCC[C@@H]2c2nc3ccccc3[nH]2)n1-c1ccccc1", "Potency": "inconclusive: 8.91 µM [cytotoxic, partial curve, poor fit]"}, {"molecule": "CCOc1ccc(-c2nnc3n2CCCC3)cc1OCC", "Potency": "inconclusive: 7.08 µM [rising, single point]"}, {"molecule": "CO[C@H]1/C=C\\O[C@@]2(C)Oc3c(C)c(O)c4c(O)c(c(C=NN5CCN(C6CCCC6)CC5)c(O)c4c3C2=O)NC(=O)C(C)=CC=C[C@H](C)[C@H](O)[C@@H](C)[C@@H](O)[C@@H](C)[C@H](OC(C)=O)[C@H]1C", "Potency": "inconclusive: 17.1 µM [cytotoxic, partial curve]"}, {"molecule": "OCC1CN(c2ncccn2)CC12CCN(Cc1cccnc1)CC2", "note": "(stereo not given)", "Potency": "inactive"}, {"molecule": "CCC1CN(C(=O)N2CCC(C(=O)NCc3ccc(OC)cc3OC)CC2)c2cc(C)ccc2O1", "note": "(stereo not given)", "Potency": "inconclusive: 35.5 µM [cytotoxic, single point]"}, {"molecule": "CCCNC(=O)Cn1c(C)ccc(NC(=O)Nc2ccc(OC)cc2)c1=O", "Potency": "inactive"}, {"molecule": "COCC(=O)Nc1cc(C2CC2)nn1-c1ccccc1", "Potency": "inactive"}, {"molecule": "Cc1cccc(-n2c(SCC(N)=O)nc3c(oc4ccccc43)c2=O)c1", "Potency": "inconclusive: 1.78 µM [cytotoxic, full curve, poor fit]"}, {"molecule": "O=C(Cc1ccc(F)cc1)N1CN=C(C2CCN(Cc3ccc(F)cc3)CC2)N1", "Potency": "inactive"}, {"molecule": "COc1cccc(CN2CC(Oc3ccccc3C(=O)NC3CC3)C2)n1", "Potency": "inconclusive: 31.6 µM [cytotoxic, single point]"}, {"molecule": "CCCCOC(=O)c1ccc(NC(=O)Cc2coc3ccc(C(C)C)cc23)cc1", "Potency": "inconclusive: 14.1 µM [cytotoxic, partial curve]"}, {"molecule": "COc1ccc(CCC(=O)N2c3ccccc3CC2c2nc(C3CC3)no2)cc1", "note": "(stereo not given)", "Potency": "inactive"}, {"molecule": "COc1cccc(C(=O)N2CCC3(CC2)CC(N(C)Cc2ccccc2)CCO3)c1", "note": "(stereo not given)", "Potency": "inactive"}, {"molecule": "O=C(NCCc1ccc(Cl)cc1)c1ccc(CS(=O)(=O)Cc2ccccc2F)o1", "Potency": "inconclusive: 44.7 µM [cytotoxic, partial curve, poor fit]"}, {"molecule": "Cc1ccc2nc(NC(=O)c3cc(=O)c4cc(Cl)ccc4o3)sc2c1", "Potency": "inconclusive: 0.891 µM [cytotoxic, full curve, poor fit]"}, {"molecule": "Cc1cn2nc(C(=O)Nc3ccc(F)c(C)c3)cc2c(N2CCSCC2)n1", "Potency": "inactive"}, {"molecule": "CCN(CC)C(=O)[C@@H]1C[C@@H](N)CN1C(=O)CC1CCCC1", "Potency": "inconclusive: 3.16 µM [rising, partial curve, poor fit]"}, {"molecule": "COc1ccc(-c2nc(-c3ccccc3)nc3c2CN(C(=O)c2cccc(OC)c2)CC3)cc1", "Potency": "inconclusive: 39.8 µM [cytotoxic, single point]"}, {"molecule": "COc1ccccc1-n1c(=O)c(C(=O)NCC(F)(F)F)nc2cccnc21", "Potency": "inactive"}, {"molecule": "Cc1ccc(Cl)cc1N1CCN(CCNC(=O)Nc2ccc(Cl)cc2)CC1", "Potency": "inconclusive: 39.8 µM [cytotoxic, single point]"}, {"molecule": "COc1cc2c(cc1CN1CCN(c3ccc(C#N)cc3)C(=O)C1)CCC2", "Potency": "inactive"}, {"molecule": "CC1=C[C@@H](CNC(=O)C2CCCCC2)[C@H](C(C)C)C[C@H]1CC(=O)N1CCN(c2ccccn2)CC1", "Potency": "active: 28.2 µM"}, {"molecule": "CN(C)c1ncc2nc(-c3ccc(F)cc3)c(=O)n(CCc3ccccc3)c2n1", "Potency": "inconclusive: 14.1 µM [rising, partial curve, poor fit]"}, {"molecule": "Cc1cnc(CCNS(=O)(=O)c2ccc(C#N)cc2)n1C1CCC1", "Potency": "inactive"}, {"molecule": "O=C(NCc1ccccc1)c1csc(Nc2ccncn2)n1", "Potency": "inconclusive: 12.1 µM [cytotoxic, full curve]"}, {"molecule": "COCC1CN(C)CC12CCN(S(=O)(=O)c1cccs1)CC2", "note": "(stereo not given)", "Potency": "inconclusive: 0.708 µM [rising, full curve, poor fit]"}, {"molecule": "O=C(NCc1ccc2c(c1)OCO2)c1ccc2c(c1)N(C(=O)c1ccc(F)cc1)CC2", "Potency": "inconclusive: 39.8 µM [cytotoxic, single point]"}, {"molecule": "c1ccc(-c2noc(-c3cncnc3N3CCN(c4ccccc4)CC3)n2)cc1", "Potency": "inactive"}, {"molecule": "COCCCn1c(=O)c(C(=O)N2CCN(C(=O)COC)CC2)nc2cccnc21", "Potency": "inactive"}, {"molecule": "O=C(Nc1ccc(F)cc1)C1CCCN(Cc2cccc(-c3ccc(F)cc3F)c2)C1", "note": "(stereo not given)", "Potency": "inconclusive: 39.8 µM [cytotoxic, single point]"}, {"molecule": "Cc1cnn(CC(=O)N2CCC3(CC2)CN(c2ncccn2)CC3CO)c1", "note": "(stereo not given)", "Potency": "inactive"}, {"molecule": "COc1ccc(N2CCN(c3nc(C(=O)NCc4ccco4)cs3)CC2)cc1", "Potency": "inconclusive: 39.8 µM [cytotoxic, single point]"}, {"molecule": "Cc1sc2c(c1C)c(=O)n(-c1cccc(C(F)(F)F)c1)c(=O)n2Cc1ccccc1C#N", "Potency": "inconclusive: 1 µM [cytotoxic, full curve, poor fit]"}, {"molecule": "COc1ccc(CCNC(=O)c2ccc3nnc(C(C)(C)C)n3c2)cc1", "Potency": "inactive"}, {"molecule": "CN(CC(=O)N(Cc1ccc(C2CCCCC2)cc1)c1ccc(C(=O)O)cc1)S(=O)(=O)c1c(F)c(F)c(F)c(F)c1F", "Potency": "inconclusive: 33.6 µM [cytotoxic, single point]"}, {"molecule": "O=C(c1ccc(Cl)nc1)N1CCN(c2nccc(Nc3ccccc3Cl)n2)CC1", "activity change, negative = cytotoxicity": "inconclusive: -14.1%"}, {"molecule": "Cc1ccc(-c2nc3c4ccccc4n(Cc4cccc(Cl)c4)c(=O)n3n2)cc1", "Potency": "inconclusive: 2.82 µM [rising, partial curve, poor fit]"}, {"molecule": "COc1ccc(-n2c(=O)c(-c3cc(F)cc(F)c3)nc3cncnc32)cc1", "Potency": "inconclusive: 10 µM [cytotoxic, partial curve]"}, {"molecule": "Cc1ccc(OCCC2CCN(C(=O)CCn3nc(C)cc3C)C2)cc1", "note": "(stereo not given)", "Potency": "inactive"}, {"molecule": "Cc1cn(CCN2CCN(c3ccccc3-c3cc(C#N)cc(C(=O)NCCCN4CCCC4)c3)CC2)c2ccccc12", "Potency": "inconclusive: 23.8 µM [cytotoxic, single point]"}, {"molecule": "COc1cccc(-c2nc(NCc3ccc(OC)cc3OC)c3ccccc3n2)c1", "Potency": "inconclusive: 25.1 µM [cytotoxic, partial curve, poor fit]"}, {"molecule": "O=c1[nH]c(SCc2ccc(Br)cc2)nc2c1CCCC2", "Potency": "inconclusive: 31.6 µM [rising, partial curve, poor fit]"}]}]}
